The source of these data is patent US20250051434A1 (Merck Sharp & Dohme, published 2025).

Residue numbers refer to the chain shown, from its start.

Sequences and labels used below:
B1: IL-12-Fc-15 (Fc fusion)
chain 1: TPDPGMFPCLHHSQNLLRAVSNMLQKARQTLEFYPCTSEEIDHEDITKDKTSTVEACLPLELTKNESCLNSRETSFITNGSCLASRKTSFMMALCLSSIYEDLKMYQVEFKTMNAKLLMDPKRQIFLDQNMLAVIDELMQALNFNSETVPQKSSLEEPRFYKTKIKLCILLHAFRIRAVTIDRVMSYLNASGGGGSGGGGSGGGGS[skipping human IgG1 Fc with L234A L235A D265S S354C T366W (EU numbers)]
chain 2: IWELKKDVYVVELDWYPDAPGEMVVLTCDTPEEDGITWTLDQSSEVLGSGKTLTIQVKEFGDAGQYTCHKGGEVLSHSLLLLHKKEDGIWSTDILKDQKEPKNKTFLRCEAKNYSGRFTCWWLTTISTDLTFSVKSSRGSSDPQGVTCGAATLSAERVRGDNKEYEYSVECQEDSACPAAEESLPIEVMVDAVHKLKYENYTSSFFIRDIIKPDPPKNLQLKPLKNSRQVEVSWEYPDTWSTPHSYFSLTFCVQVQGKSKREKKDRVFTDKTSATVICRKNASISVRAQDRYYSSSWSEWASVPCSGGGGDKTHTCPPCPAPEAAGGPSVFLFPPKPKDTLMISRTPEVTCVVVSVSHEDPEVKFNWYVDGVEVHNAKTKPREEQYNSTYRVVSVLTVLHQDWLNGKEYKCKVSNKALPAPIEKTISKAKGQPREPQVCTLPPSRDELTKNQVSLSCAVKGFYPSDIAVEWESNGQPENNYKTTPPVLDSDGSFFLVSKLTVDKSRWQQGNVFSCSVMHEALHNHYTQKSLSLSPGK
B2: IL-12-Fc-3 (Fc fusion)
chain 1: B1 chain 1 with E40W, R159D
chain 2: B1 chain 2
B3: IL-12-Fc-17 (Fc fusion)
chain 1: B1 chain 1 with R159F
chain 2: B1 chain 2
B4: IL-12-Fc-33 (Fc fusion)
chain 1: B1 chain 1 with R159D
chain 2: B1 chain 2 with K104D
B5: IL-12-Fc-6 (Fc fusion)
chain 1: B1 chain 1 with I41S, R159D
chain 2: B1 chain 2
B6: IL-12-Fc-31 (Fc fusion)
chain 1: B1 chain 1 with R159D
chain 2: B1 chain 2 with I89P
B7: IL-12-Fc-26 (Fc fusion)
chain 1: B1 chain 1 with R159D
chain 2: B1 chain 2 with D87A
B8: IL-12-Fc-7 (Fc fusion)
chain 1: B1 chain 1 with I41T, R159D
chain 2: B1 chain 2
B9: IL-12-Fc-27 (Fc fusion)
chain 1: B1 chain 1 with R159D
chain 2: B1 chain 2 with D87L
B10: IL-12-Fc-30 (Fc fusion)
chain 1: B1 chain 1 with R159D
chain 2: B1 chain 2 with I89D
B11: IL-12-Fc-21 (Fc fusion)
chain 1: B1 chain 1 with R159D, Y161W
chain 2: B1 chain 2
B12: IL-12-Fc-34 (Fc fusion)
chain 1: B1 chain 1 with R159D
chain 2: B1 chain 2 with K104W
B13: IL-12-Fc-16 (Fc fusion)
chain 1: B1 chain 1 with R159Y
chain 2: B1 chain 2
B14: IL-12-Fc-28 (Fc fusion)
chain 1: B1 chain 1 with R159D
chain 2: B1 chain 2 with I89A
B15: IL-12-Fc-5 (Fc fusion)
chain 1: B1 chain 1 with I41V, R159D
chain 2: B1 chain 2
B16: IL-12-Fc-22 (Fc fusion)
chain 1: B1 chain 1 with R159D, K162E
chain 2: B1 chain 2
B17: IL-12-Fc-1 (Fc fusion)
chain 1: B1 chain 1 with E40K, R159D
chain 2: B1 chain 2
B18: IL-12-Fc-23 (Fc fusion)
chain 1: B1 chain 1 with R159D, K162D
chain 2: B1 chain 2
B19: IL-12-Fc-24 (Fc fusion)
chain 1: B1 chain 1 with R159D
chain 2: B1 chain 2 with K85E
B20: IL-12-Fc-32 (Fc fusion)
chain 1: B1 chain 1 with R159D
chain 2: B1 chain 2 with K104E
B21: IL-12-Fc-20 (Fc fusion)
chain 1: B1 chain 1 with R159D, Y161A
chain 2: B1 chain 2
B22: IL-12-Fc-25 (Fc fusion)
chain 1: B1 chain 1 with R159D
chain 2: B1 chain 2 with K85Y
B23: IL-12-Fc-2 (Fc fusion)
chain 1: B1 chain 1 with E40R, R159D
chain 2: B1 chain 2
B24: IL-12-Fc-4 (Fc fusion)
chain 1: B1 chain 1 with I41A, R159D
chain 2: B1 chain 2
B25: IL-12-Fc-35 (Fc fusion)
chain 1: B1 chain 1 with R159D
chain 2: B1 chain 2 with K104S
B26: IL-12-Fc-29 (Fc fusion)
chain 1: B1 chain 1 with R159D
chain 2: B1 chain 2 with I89S
B27: IL-12-Fc-39 (Fc fusion)
chain 1: B1 chain 1
chain 2: B1 chain 2 with D87L
B28: IL-12-Fc-42 (Fc fusion)
chain 1: B1 chain 1 with R159D, Y161A
chain 2: B1 chain 2 with D87L
B29: IL-12-Fc-44 (Fc fusion)
chain 1: B1 chain 1 with E44R, R159D
chain 2: B1 chain 2 with K104E
B30: IL-12-Fc-43 (Fc fusion)
chain 1: B1 chain 1 with I41S, R159D
chain 2: B1 chain 2 with K104E
B31: IL-12-Fc-40 (Fc fusion)
chain 1: B1 chain 1 with R159D, Y161S
chain 2: B1 chain 2 with D87L
B32: IL-12-Fc-38 (Fc fusion)
chain 1: B1 chain 1 with R159K
chain 2: B1 chain 2 with D87L
B33: IL-12-Fc-36 (Fc fusion)
chain 1: B1 chain 1 with I41S, R159D
chain 2: B1 chain 2 with D87L
B34: IL-12-Fc-37 (Fc fusion)
chain 1: B1 chain 1 with E44R, R159D
chain 2: B1 chain 2 with D87L
B35: IL-12-Fc-wt1 (Fc fusion)
chain 1: B1 chain 1 with R159D
chain 2: B1 chain 2

For the first experiment, the target named is T1, human IL-12 receptor (IL-12R) (human, UniProt P42701 24-662; Q99665 24-862). Put plainly: cell-based or functional assay.
For B1, the “Mean Fold Reduction (potency vs IL-12 WT by EC50; HEK-Blue IL-12 STAT4/SEAP reporter)” value was found to be 4 fold.

Consider B2, for which the “Mean Fold Reduction (potency vs IL-12 WT by EC50; HEK-Blue IL-12 STAT4/SEAP reporter)” value amounted to 2 fold.

For B3, the “Mean Fold Reduction (potency vs IL-12 WT by EC50; HEK-Blue IL-12 STAT4/SEAP reporter)” value was found to be 3 fold.

In the case of B4, the “Mean Fold Reduction (potency vs IL-12 WT by EC50; HEK-Blue IL-12 STAT4/SEAP reporter)” value turned out to be 5 fold.

On to B5, for which the “Mean Fold Reduction (potency vs IL-12 WT by EC50; HEK-Blue IL-12 STAT4/SEAP reporter)” value was 7 fold.

B6: the “Mean Fold Reduction (potency vs IL-12 WT by EC50; HEK-Blue IL-12 STAT4/SEAP reporter)” value came to 1 fold.

As to B7, the “Mean Fold Reduction (potency vs IL-12 WT by EC50; HEK-Blue IL-12 STAT4/SEAP reporter)” value is 1 fold.

Turning to B8, the “Mean Fold Reduction (potency vs IL-12 WT by EC50; HEK-Blue IL-12 STAT4/SEAP reporter)” value worked out at 1 fold.

Regarding B9, the “Mean Fold Reduction (potency vs IL-12 WT by EC50; HEK-Blue IL-12 STAT4/SEAP reporter)” value was found to be 8 fold.

B10: the “Mean Fold Reduction (potency vs IL-12 WT by EC50; HEK-Blue IL-12 STAT4/SEAP reporter)” value was determined as 2 fold.

As to B11, the “Mean Fold Reduction (potency vs IL-12 WT by EC50; HEK-Blue IL-12 STAT4/SEAP reporter)” value worked out at 2 fold.

Take B12: the “Mean Fold Reduction (potency vs IL-12 WT by EC50; HEK-Blue IL-12 STAT4/SEAP reporter)” value came out at 3 fold.

On to B13, for which the “Mean Fold Reduction (potency vs IL-12 WT by EC50; HEK-Blue IL-12 STAT4/SEAP reporter)” value was determined as 2 fold.

On to B14, for which the “Mean Fold Reduction (potency vs IL-12 WT by EC50; HEK-Blue IL-12 STAT4/SEAP reporter)” value amounted to 1 fold.

Consider B15, for which the “Mean Fold Reduction (potency vs IL-12 WT by EC50; HEK-Blue IL-12 STAT4/SEAP reporter)” value was found to be 2 fold.

For the molecule B16, the “Mean Fold Reduction (potency vs IL-12 WT by EC50; HEK-Blue IL-12 STAT4/SEAP reporter)” value is 2 fold.

On to B17, for which the “Mean Fold Reduction (potency vs IL-12 WT by EC50; HEK-Blue IL-12 STAT4/SEAP reporter)” value amounted to 2 fold.

B18: the “Mean Fold Reduction (potency vs IL-12 WT by EC50; HEK-Blue IL-12 STAT4/SEAP reporter)” value came to 1 fold.

For the molecule B19, the “Mean Fold Reduction (potency vs IL-12 WT by EC50; HEK-Blue IL-12 STAT4/SEAP reporter)” value was determined as 1 fold.

On to B20, for which the “Mean Fold Reduction (potency vs IL-12 WT by EC50; HEK-Blue IL-12 STAT4/SEAP reporter)” value turned out to be 4 fold.

B21: the “Mean Fold Reduction (potency vs IL-12 WT by EC50; HEK-Blue IL-12 STAT4/SEAP reporter)” value came to 5 fold.

As for B22, the “Mean Fold Reduction (potency vs IL-12 WT by EC50; HEK-Blue IL-12 STAT4/SEAP reporter)” value was found to be 2 fold.

For B23, the “Mean Fold Reduction (potency vs IL-12 WT by EC50; HEK-Blue IL-12 STAT4/SEAP reporter)” value is 1 fold.

In the case of B24, the “Mean Fold Reduction (potency vs IL-12 WT by EC50; HEK-Blue IL-12 STAT4/SEAP reporter)” value was found to be 1 fold.

Turning to B25, the “Mean Fold Reduction (potency vs IL-12 WT by EC50; HEK-Blue IL-12 STAT4/SEAP reporter)” value is 2 fold.

B26: the “Mean Fold Reduction (potency vs IL-12 WT by EC50; HEK-Blue IL-12 STAT4/SEAP reporter)” value was determined as 1 fold.

The target in a further experiment is T1, human IL-12 receptor (IL-12R). Put plainly: cell-based or functional assay. This is another data set of the same source.
T1 sequence (Q99665 24-862, chain 2 of 2, other chains not shown): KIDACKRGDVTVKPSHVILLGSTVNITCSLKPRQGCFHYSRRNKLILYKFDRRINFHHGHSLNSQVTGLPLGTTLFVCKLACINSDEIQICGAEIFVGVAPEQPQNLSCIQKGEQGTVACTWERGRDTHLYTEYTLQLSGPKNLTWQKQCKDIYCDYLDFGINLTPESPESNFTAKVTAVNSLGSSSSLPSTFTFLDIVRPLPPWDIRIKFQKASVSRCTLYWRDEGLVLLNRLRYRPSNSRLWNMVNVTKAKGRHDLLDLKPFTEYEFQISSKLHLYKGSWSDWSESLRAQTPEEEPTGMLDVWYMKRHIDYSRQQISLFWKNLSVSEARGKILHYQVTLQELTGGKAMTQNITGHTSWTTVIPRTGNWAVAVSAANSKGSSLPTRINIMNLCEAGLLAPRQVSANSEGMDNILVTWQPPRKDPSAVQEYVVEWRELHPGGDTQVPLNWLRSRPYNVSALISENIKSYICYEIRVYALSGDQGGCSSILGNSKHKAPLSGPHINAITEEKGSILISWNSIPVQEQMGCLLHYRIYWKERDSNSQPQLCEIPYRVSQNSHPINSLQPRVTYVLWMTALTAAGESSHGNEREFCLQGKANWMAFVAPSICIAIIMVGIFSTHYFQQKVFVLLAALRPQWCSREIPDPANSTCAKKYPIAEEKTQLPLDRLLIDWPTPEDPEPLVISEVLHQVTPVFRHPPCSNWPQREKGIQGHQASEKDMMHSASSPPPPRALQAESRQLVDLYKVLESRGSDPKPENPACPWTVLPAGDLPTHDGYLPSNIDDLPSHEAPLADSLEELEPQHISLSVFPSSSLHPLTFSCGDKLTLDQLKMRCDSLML
Consider B27, for which the “Mean Fold Reduction (potency vs IL-12 WT by EC50; HEK-Blue IL-12 STAT4/SEAP reporter)” value was found to be 2 fold.

For the molecule B28, the “Mean Fold Reduction (potency vs IL-12 WT by EC50; HEK-Blue IL-12 STAT4/SEAP reporter)” value worked out at 5 fold.

As for B29, the “Mean Fold Reduction (potency vs IL-12 WT by EC50; HEK-Blue IL-12 STAT4/SEAP reporter)” value stood at 3 fold.

For the molecule B30, the “Mean Fold Reduction (potency vs IL-12 WT by EC50; HEK-Blue IL-12 STAT4/SEAP reporter)” value came to 3 fold.

On to B31, for which the “Mean Fold Reduction (potency vs IL-12 WT by EC50; HEK-Blue IL-12 STAT4/SEAP reporter)” value came out at 12 fold.

B32: the “Mean Fold Reduction (potency vs IL-12 WT by EC50; HEK-Blue IL-12 STAT4/SEAP reporter)” value was 1 fold.

As for B33, the “Mean Fold Reduction (potency vs IL-12 WT by EC50; HEK-Blue IL-12 STAT4/SEAP reporter)” value turned out to be 1 fold.

As for B34, the “Mean Fold Reduction (potency vs IL-12 WT by EC50; HEK-Blue IL-12 STAT4/SEAP reporter)” value came to 1 fold.

Take B35: the “Mean Fold Reduction (potency vs IL-12 WT by EC50; HEK-Blue IL-12 STAT4/SEAP reporter)” value stood at 1 fold.
